# Test results from PubChem BioAssay AID624417 (National Center for Advancing Translational Sciences (NCATS), 2012).
# The campaign covered roughly 410,000 compounds. About 6,400 (1.6%) were called active. Inconclusive results, whose numbers are uncertain, are shown with a selection of clear calls. Calls come from the whole dose curve; as a rule, active = well fitted inhibition curve with a large enough effect; inconclusive = small, poorly fitted or top-dose-only effect; inactive = no such curve, though single readings can be large or run the other way. Potencies of inconclusive entries are left out as doubtful fits.
# Target: Glucagon-like peptide 1 receptor (Homo sapiens) (UniProt P43220)
# Sequence of UniProt P43220 (P43220 whole entry, looked up): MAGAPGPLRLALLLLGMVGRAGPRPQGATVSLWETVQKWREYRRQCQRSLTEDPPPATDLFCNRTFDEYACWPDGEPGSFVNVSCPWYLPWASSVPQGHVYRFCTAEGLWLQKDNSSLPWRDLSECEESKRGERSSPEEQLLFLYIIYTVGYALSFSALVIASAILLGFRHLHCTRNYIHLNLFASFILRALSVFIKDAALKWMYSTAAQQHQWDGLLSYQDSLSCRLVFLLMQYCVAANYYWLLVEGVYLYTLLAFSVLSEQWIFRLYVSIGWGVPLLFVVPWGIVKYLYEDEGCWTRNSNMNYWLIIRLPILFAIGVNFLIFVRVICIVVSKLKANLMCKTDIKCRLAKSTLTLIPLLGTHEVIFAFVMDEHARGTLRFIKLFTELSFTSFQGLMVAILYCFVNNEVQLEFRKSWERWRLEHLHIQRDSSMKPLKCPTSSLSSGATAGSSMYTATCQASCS
# Experiment: qHTS of GLP-1 Receptor Inverse Agonists (Inhibition Mode); note: nearly all actives have a fitted effect of over 55% in size
# Conditions: HEK293 GLP-1R CRE-luciferase, luminescence, 24 h, GLP-1R form is constitutively active; series mostly up to 38.3 µM
# Procedure, shortened: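 Seeding at 200 cells/uL, 12 h culture, 24 hr compound treatment, then luciferase reagent and a luminescence read; cells are HEK293 stably expressing a constitutively active GLP-1R plus cAMP-responsive luciferase.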
# Potency is the fitted concentration of half-maximal effect; tags give direction and shape of the fitted curve.
row,SMILES,Potency
1,O=C(CCN1C(=O)C2CCCCC2C1=O)Nc1ccc(Br)cc1F (centres undefined),"inconclusive [inhibitor, single point]"
2,CCCCC(=O)N1C/C=C\C(c2ccc(OC)cc2)N(Cc2ccc(F)cc2)C(=O)[C@H]1Cc1ccccc1 (some centres undefined),"inconclusive [inhibitor, partial curve, poor fit]"
3,C[C@@H]1CN([C@H](C)CO)C(=O)CCCn2nncc2CO[C@@H]1CN(C)C(=O)NC1CCCCC1,inactive
4,Cc1ccc(-c2cc([C@H]3[C@H]4C=CC[C@@H](C)[C@@H]4C(=O)N3Cc3ccccc3)ccc2F)cc1,"inconclusive [inhibitor, partial curve, poor fit]"
5,COc1ccc(NC(=O)c2cc(-c3cc(Cl)ccc3OC)n[nH]2)c(OC)c1,"inconclusive [inhibitor, single point]"
6,C=CCCN(Cc1ccccc1)S(=O)(=O)c1ccccc1Br,"inconclusive [inhibitor, partial curve, poor fit]"
7,CCOP(=O)(OCC)C(NC(=O)Nc1cccc(Cl)c1)c1ccccc1 (centres undefined),active: 7.94 µM
8,Cc1nc2ccc(S(=O)(=O)CCC(=O)Nc3ccc(F)cc3C)cc2s1,inactive
9,CC1=C(C(=O)N(C(C)C)C(C)C)CC(CC(=O)NC(c2ccccc2)c2ccccc2)C(=O)N1Cc1ccc(F)cc1 (centres undefined),"inconclusive [inhibitor, partial curve]"
10,O=C(COC(=O)c1cccc2ccccc12)NCCCc1ccccc1,inactive
11,OC[C@@H]1CN(Cc2ccc(-c3ccccc3)cc2)C[C@H](n2cnc3c(NCc4ccco4)ncnc32)O1,"inconclusive [inhibitor, partial curve, poor fit]"
12,CC(C)c1ccc(NC(=O)CCCc2nc(-c3ccc(Cl)cc3)no2)cc1,inactive
13,O=S(=O)(/C=C/c1ccccc1)N1CCN(Cc2ccccc2)CC1,"inconclusive [inhibitor, single point]"
14,Oc1ccc(F)c(CN2CCN(c3ncc(Cc4ccccc4)cn3)CC2)c1,"inconclusive [inhibitor, single point]"
15,Cc1ccc(C(C(=O)NCc2ccccc2)N(C(=O)c2csnn2)C2CC2)cc1 (centres undefined),"inconclusive [inhibitor, single point]"
16,Cc1ccccc1NC(=O)c1ccccc1NC(=O)c1ccccc1Cl,"inconclusive [inhibitor, partial curve, poor fit]"
17,COc1cccc(CNC(=O)CC(c2ccc(F)cc2)N2Cc3ccccc3C2=O)c1 (centres undefined),"inconclusive [inhibitor, single point]"
18,Cc1cccc(CSc2nc3ccncc3n2CC(=O)Nc2cc(C)cc(C)c2)c1,"inconclusive [inhibitor, full curve]"
19,Cc1cccc(-c2noc(CNC(=O)COc3ccccc3C)n2)c1,"inconclusive [inhibitor, partial curve, poor fit]"
20,CCc1nccn1S(=O)(=O)c1ccc2ccc(C)cc2c1,inactive

row,SMILES,Potency
1,COc1ccc(-n2nc(C(=O)NCC(=O)NCCCN3CC(C)CC(C)C3)c3ccccc3c2=O)cc1Cl (centres undefined),"inconclusive [inhibitor, partial curve, poor fit]"
2,O=C1CSC(c2ccc(Cl)cc2)N1Nc1nc(N2CCOCC2)nc(N2CCOCC2)n1 (centres undefined),"inconclusive [inhibitor, single point]"
3,Cc1ccc(CN2CCN(c3ncccn3)CC2)c(C)c1,"inconclusive [inhibitor, single point]"
4,CCc1ccc(-c2cc(C(F)(F)F)n3nc(C(=O)Nc4c(C)nn(Cc5ccc(F)cc5)c4C)cc3n2)s1,"inconclusive [inhibitor, partial curve, poor fit]"
5,CC1Cc2nc(SCC(=O)N3CCN(c4ccccc4)CC3)n(CCc3ccccc3)c(=O)c2S1 (centres undefined),"inconclusive [inhibitor, partial curve]"
6,Oc1c(Br)cc(Br)cc1CNc1ccc(F)cc1,"inconclusive [inhibitor, partial curve, poor fit]"
7,CCCOc1ccc(NC(=O)CC2C(=O)N(c3ccccc3)C(=O)N2CCC(C)C)cc1 (centres undefined),"inconclusive [inhibitor, single point]"
8,CCC(C(=O)NCCc1ccccc1)c1ccccc1 (centres undefined),"inconclusive [inhibitor, partial curve, poor fit]"
9,COc1cc(-c2cc(OC)c3c(C)oc(C)c3c(=O)c2)ccc1OC(=O)c1ccccc1C,"inconclusive [inhibitor, partial curve, poor fit]"
10,Cc1ccc(NC(=O)c2sccc2C)nc1,"inconclusive [inhibitor, single point]"
11,COc1ccccc1NC(=O)Cn1c(=O)n(Cc2ccco2)c(=O)c2oc3ccccc3c21,inactive
12,C=CCn1c(COc2ccccc2)nnc1SC(C)C(=O)N/N=C/c1cc(Cl)ccc1O (centres undefined),active: 8.91 µM
13,Cc1ccc(C(=O)NCC(c2ccc(F)cc2)N2CCOCC2)cc1S(=O)(=O)N1CCOCC1 (centres undefined),inactive
14,COc1ccc(NC(=O)c2sccc2-n2cccc2)cc1,"inconclusive [inhibitor, partial curve, poor fit]"
15,CCCc1nn2c(=O)c(C(c3cccc(Cl)c3)c3c(O)nc4sc(CCC)nn4c3=O)c(O)nc2s1,"inconclusive [inhibitor, partial curve]"
16,COc1ccccc1-n1c(SCC(=O)O)nc2c(sc(=S)n2-c2ccc(Cl)c(C)c2)c1=O,"inconclusive [inhibitor, single point]"
17,COc1ccc(CCNC(=O)Cc2c(Cl)cccc2Cl)cc1,"inconclusive [inhibitor, full curve, poor fit]"
18,CCCNC(=O)C(Cc1cccc(C#N)c1)NC(=O)c1ccc(C#N)cc1 (centres undefined),inactive
19,O=C(CN1C(=O)NC(c2ccccc2)(c2ccccc2)C1=O)NCCc1ccc(F)cc1,"inconclusive [inhibitor, partial curve, poor fit]"
